# According to the supplement of paper PMC12632987:
# The full ranking holds about 2,300 sequences; the median of “median log2 fold change of GCK-ALFA target abundance (FLAG IP / Myc IP barcode read proportion)” is about 0.095, and the lowest 2% start at about -0.47. The list shows a part of the results.
# B1: LC3A_45_1991 (protein)
# chain: MAKATIDILVPRELLEEALAVIEESAEEIKKEEGDEVKIDLEKLRESAEATKDEEEVYLVLEIYHPDKEKALDIADSIVDRLHEKLGDRVAAIISVEELP
# B2: LC3A_3_1375 (protein)
# chain: SEELIEETLAYLREKGKSEETLEAVRRAMEALAEKGYEEALKTFAELLKEMEDLPDEILLDFAEDVLEAVENEDLNEEELIEFIKEEARVARSEGEIIEL
# B3: LC3A_free_46_2380 (protein)
# chain: YKINIDVDFGAMDKETAEKMAKEIKEAAKKIAKKTGVEIKVDVKIITDEEGETYLEVNITITGEDKEKVEAAANELLKEIDKIADKAGVSYIISVDFEDT
# B4: LC3A_28_919 (protein)
# chain: MTKEEIIERIEEIADRAIAEGKDAFIEVKIDSSHTVEEAKEIMEKIREEVARLSAAGLKVDIVIDLDDVSQEVLDVVAEEAEEIEEEFPNVSVVIALDEE
# B5: LC3A_28_726 (protein)
# chain: NPLEESIEKALERAKRLAKEGKSDVIEITVPGDATQEDIERVIEALYEIAEIVKDLERVDIVINVEGGVAQEHIDRLADAADEIEKKYPNVTVIIALDEE
# B6: LC3A_free_46_2307 (protein)
# chain: VKAEIIIDLSHKDEEVLKKAVEEIVKKAKEIAEKYGLKVEIEVSFSKDEDGEYFAEIKIEVEGEKLEDIEKFVNELIKEIEKIAEKYGVSAVISVEIEKP
# B7: LC3A_free_39_2207 (protein)
# chain: SEEELEKLIKEVAKAGGIDYEYVREKIKEIQKVAGLSIEEMLELVKEILKAVKAGADAEEILERILEIAKRLKAEGKSSEEILEEMLEEIRDFENLVPLD
# B8: LC3A_28_682 (protein)
# chain: SRMEESIKAALEAAKAALAAGEPAVIELNVYADITEEELEKLLEKLEEIAELASKVPGSAIVINVEAGLKEEHLNKIMDKAEELEKKYKNVTIIIALEEE
# B9: LC3A_free_8_2480 (protein)
# chain: SSQKLVDAALKGLDKLEEEVEKKAKELGLSELDILELKLEIGALKAEVISLSDKSKEEIYKATKEGLERIIELAKEINEELAKVVKEKSEEILKELEKLL
# B10: LC3A_45_1987 (protein)
# chain: MYEAEVDLLVPKELAEEALKVAKEAMEELKKKYGPDLKVDEETLEKTYEESKDEEEVYLRIKIYHPDEDVALDAAVELEDRIHEKLGDKVASIISYKKVP
# B11: LC3A_28_681 (protein)
# chain: SALEKELEKALAEAKEAAAAGEPTVIVINVPGDATQEEIEKFIKALEEIAEILKDVKGAAIVVDLSKDLSQEHQDKIIDAAEKINEKYPNVTVIIALEEK
# B12: LC3A_28_1232 (protein)
# chain: MTPEEIAARKVAEAKAQLAAGNKVIEIDISAEEGSPENADALAKALKEIAELANKAGGVSIIVTLDSKTPQENQQKLIDTAEEAEKKYPNVTIIIAIDED
# B13: LC3A_28_692 (protein)
# chain: SAVDAQIAAARAAAAEAAARGEEATLTVTITADTTEADVDRIMAAIEEIAEEMSKVAKLSIIVDIEAGVDQAHIDRLMDFGDELSEKYPNVSIIFALDEE
# B14: LC3A_3_1794 (protein)
# chain: MEELIEELLRELREAGKSEETLEAVRRALEALAERGYEEALETFVEGLRELKDAPDEILLWLAEEVLALVEEEDLDEEELKARIEELLRLARNEAEIEEL
# B15: LC3A_59_2028 (protein)
# chain: TAEIDAFIAALKAAKDDLEAMAEILLEGFTAVKDDPELLKELKEKVVATLVELGLLSEELAKELVEEVEKIVKTEKDREKALKLILEELTVARNENEIIE
# B16: LC3A_17_555 (protein)
# chain: MEELKKELEELLKELEKLVKELEKYDPEAAKKLKEKLKEAKKALEKGDLKKALKILKEVAEEAAEVFDSLEHIDPELMSILSMEAEGLLIEALSLEEKLE
# B17: LC3A_3_1589 (protein)
# chain: SEELVEEKLKRLREAGLSEEVLEAARKVLEALAERGFERAMEVLTEKLLELKDVDDEVLLAMLEEILHKIETEDLNEEEIIKVIEEEARVARLEAEIEEL
# B18: LC3A_3_1425 (protein)
# chain: SEELLEEAKEELEKAGFSEETKEAVLRLIELALEAGEYEGVRELIEELKKAKDVPSEEVLEAAEEALRLIEEEGVSMEEALRYFISEIRVLILDLEIEEL
# B19: LC3A_free_8_2447 (protein)
# chain: KNEELVTEVTEILDELEEKLEEKAKELGLSRLEILELELDVGEIKIDLISAVDKSIEEIEKVATEGLDDLKKLAAEYSEELKKLVEEAEKKILELIEKAK
# B20: LC3A_3_1525 (protein)
# chain: SAAIRAEILALLRAAGADEETLADAEALLELLEARGYAEAQRTLLEELRRLADASPETLADFVREVLELAETEDLNEAELSERIREIADTALADAEIEEL
# B21: LC3A_132_258 (protein)
# chain: SEEKKEEFLEKFKELIDKIVEALQAGQDPSPYLKELDELAEEAAEELSLEELEELVEEAEKYARERFAERLDPNDPEARRTLLIVEMILDSALIESELRA
# B22: LC3A_28_778 (protein)
# chain: MDIDKEVEKAIEEAKKAKEEGKETVITIKVPNGITQEDVEKVIEGMEKIAEITKDMKSTAIVVDVDSGVPQEHLDKLIDAGEEIEEKYPNVTVIFALDED
# B23: LC3A_28_1312 (protein)
# chain: SKLKKQFEEAIKEVEAAAAAGEPVVVTIDITAEEAEKELEEILKLLEELAKVASKAPGATIIIDVDEDVKPENLKKIAEKAEELEKKYPNVTVIIAIEDK
# B24: LC3A_132_326 (protein)
# chain: EEEKLKELEEKINKKLEEMKANIDNKEKVEKLAKEIEKLLEEAEKEISPEEAAELFEKAADKLDEAADAADAAGKEDVALTLDGLAVLAAARSIRAEEKV
# B25: LC3A_3_1807 (protein)
# chain: MEEKLEELLKKLREAGKSEETIEAARRALELLIERGYYEAAEVLIEGLERLLDAPDELVLDLLEEVLEYLETNDASEEEVKEFIEEQIRLAENEAEIIEL
# B26: LC3A_127_195 (protein)
# chain: ELRELLERMLEVARRLLEELAKPDWDLERIRELAEELRRLAEEALKLDPRVQPILEDAELLLEEIERMEGLSPAEQEEAREHMSMIASGIEIELLGLLLE
# B27: LC3A_free_46_2381 (protein)
# chain: YRAEIDIDFGAMSKETAEKMAKEIKEAAEKIAKETGVEIEVEVEIITDEDGETYLRVKITIKGEDKEKVKEAVDKLVKEIDEIAEKANVSYIISIEFIDE
# B28: LC3A_147_395 (protein)
# chain: VVLEVDIDFITKNAEDEIEEEIKKLVEELKKKGYKVELKIEREKLDEDTTYIHVNITVKAETLEKAQEARDTIIDRIDEIIEKYKDKILGSLISYEIIEE
# B29: LC3A_3_1482 (protein)
# chain: MEEKLEKAVKALREAGKSEETIEALRRAYNALIEKGYENAAETLIDQMLKYIDLPDEDLLAAAELALELIETSDLDEASLAAKIKQIFDDVAGIEALDEE
# Biological target: MAP1LC3A, Q9H492
# Assay: median log2 fold change of GCK-ALFA target abundance (FLAG IP / Myc IP barcode read proportion) (log2 ratio); each designed protein is fused to an ALFA-tag nanobody in HEK293 cells to bring the named protein to FLAG-tagged glucokinase (GCK); Myc marks an untargeted standard; higher = target protein stabilised (more abundant)
# Details: target protein: 3xFLAG-MCP-GCK-ALFA reporter; HEK293 landing pad (RPLP)
# Procedure, shortened: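 HEK293 landing-pad cells received a recombined binder library fused to the ALFA nanobody and were induced with 2 μg mL^−1 doxycycline, then transfected with a plasmid encoding a FLAG-tagged target and a Myc-tagged standard. Lysates were collected after 48 h for anti-FLAG and anti-Myc immunoprecipitation, and the circular RNA barcodes were reverse transcribed, amplified and sequenced. Target abundance for each binder is the median log2 ratio of FLAG to Myc barcode read proportions. Barcodes had to reach a proportion of at least 10^−7 in both replicates, each binder needed at least 3 barcodes per replicate, a pseudocount of 10^−6 was applied, and the two replicates were pooled.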
row,Binder,median log2 fold change
1,B1,0.091
2,B2,0.306
3,B3,-0.0183
4,B4,-0.111
5,B5,0.274
6,B6,0.228
7,B7,0.108
8,B8,-0.369
9,B9,0.122
10,B10,0.106
11,B11,0.271
12,B12,0.169
13,B13,-0.0924
14,B14,0.183
15,B15,0.119
16,B16,-0.476
17,B17,-0.0121
18,B18,0.123
19,B19,0.0273
20,B20,0.166
21,B21,-0.582
22,B22,-0.305
23,B23,-0.0764
24,B24,-0.0983
25,B25,0.000802
26,B26,-0.0106
27,B27,0.0299
28,B28,-0.383
29,B29,0.244
